# Data taken from the supplement of paper PMC4604168 (melanoma cell lines).
# This is one part of the list. Most values come without repeats; read them as rough.
# What was measured:
# Assay in all cases: cell count relative to DMSO control; melanoma cells; higher = more viable cells
# Conditions in all cases: library dose: low library concentration; 72 h
# MZ2-MEL = tested on: MZ2-MEL
# MeWo = tested on: MeWo
# RPMI7951 = tested on: RPMI7951
# RVH-421 = tested on: RVH-421
# SkMel28 = tested on: SkMel28
# SkMel2 = tested on: SkMel2
# SkMel30 = tested on: SkMel30
# SkMel5 = tested on: SkMel5
# UACC257 = tested on: UACC257
# UACC62 = tested on: UACC62
# 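Further: cell number obtained by counting DAPI-stained nuclei in high-throughput microscope images with image analysis software, screen run in 1,536-well plates.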
Structure (SMILES),cell count (MZ2-MEL) [%],cell count (MeWo) [%],cell count (RPMI7951) [%],cell count (RVH-421) [%],cell count (SkMel28) [%],cell count (SkMel2) [%],cell count (SkMel30) [%],cell count (SkMel5) [%],cell count (UACC257) [%],cell count (UACC62) [%]
"Cn1c(Nc2ccc(C(F)(F)F)cc2)nc2cc(Oc3ccnc(-c4ncc(C(F)(F)F)[nH]4)c3)ccc21 + O=C(CCCCCCC(=O)Nc1ccccc1)NO [vorinostat] (first compound 0.08 µM, partner dose 0.08 µM)",65.6,65.5,55.1,73.2,55.9,66.2,49.6,70.7,46.4,48.3
"COCC[n+]1c2c(n(Cc3cnccn3)c1C)C(=O)c1ccccc1C2=O + COc1cc2c(Oc3ccc4[nH]c(C)cc4c3F)ncnc2cc1OCCCN1CCCC1 [cediranib] (first compound 0.0004 µM, partner dose 0.4 µM)",57.2,82.1,95.5,97,101,81.3,96,52.2,78.4,78.5
"Clc1ccc(Nc2nnc(Cc3ccncc3)c3ccccc23)cc1 [vatalanib] + O=C1NC(=O)/C(=C/c2ccc(-c3ccc(F)cc3O)o2)S1 [AS252424] (first compound 2 µM, partner dose 1 µM)",88.2,89,91,91.9,93.2,112,85.3,85.1,96.5,101
"Cn1c(Nc2ccc(C(F)(F)F)cc2)nc2cc(Oc3ccnc(-c4ncc(C(F)(F)F)[nH]4)c3)ccc21 + NC(=O)Nc1cc(-c2cccc(F)c2)sc1C(=O)N[C@H]1CCCNC1 [AZD7762] (first compound 0.08 µM, partner dose 0.02 µM)",93.3,69.2,47.7,91,66.8,87.5,55.2,74.7,54.2,56.8
"Nc1cccc2c1CN(C1CCC(=O)NC1=O)C2=O (stereo not given) [lenalidomide] + CC1(C)NC(=O)N(c2ccc([N+](=O)[O-])c(C(F)(F)F)c2)C1=O [nilutamide] (first compound 1 µM, partner dose 1 µM)",101,100,119,87.5,99.4,93.9,107,93.1,115,99.1
"OCc1c[nH]c2ccccc12 [Indole-3-carbinol] + O=c1cc(-c2cccc3c2Sc2ccccc2S3)oc(N2CCOCC2)c1 [KU55933] (first compound 0.8 µM, partner dose 1 µM)",103,102,108,144,94,105,89.9,112,101,116
"OCc1c[nH]c2ccccc12 [Indole-3-carbinol] + Cn1cncc1[C@@](N)(c1ccc(Cl)cc1)c1ccc2c(c1)c(-c1cccc(Cl)c1)cc(=O)n2C [tipifarnib] (first compound 0.8 µM, partner dose 0.01 µM)",98.5,89.6,94.9,89.1,87.5,91.2,97.4,84.3,57.9,63.5
"Clc1ccc(Nc2nnc(Cc3ccncc3)c3ccccc23)cc1 [vatalanib] + Cn1cncc1[C@@](N)(c1ccc(Cl)cc1)c1ccc2c(c1)c(-c1cccc(Cl)c1)cc(=O)n2C [tipifarnib] (first compound 2 µM, partner dose 0.01 µM)",94.7,88.8,71.3,65.6,79,80.5,86.5,75.6,62.9,62.5
"Clc1ccc(Nc2nnc(Cc3ccncc3)c3ccccc23)cc1 [vatalanib] + CO[C@@H]1[C@H](N(C)C(=O)c2ccccc2)C[C@H]2O[C@]1(C)n1c3ccccc3c3c4c(c5c6ccccc6n2c5c31)C(=O)NC4 [Midostaurin] (first compound 2 µM, partner dose 0.08 µM)",86.4,76.4,92.9,97.1,86,77.5,116,73.8,65.1,89.1
"O=C(CCCCCCC(=O)Nc1ccccc1)NO [vorinostat] + CC1(C)NC(=O)N(c2ccc([N+](=O)[O-])c(C(F)(F)F)c2)C1=O [nilutamide] (first compound 0.08 µM, partner dose 1 µM)",111,97.9,112,99.6,92.3,105,111,92.3,94.9,110
"C#Cc1cccc(Nc2ncnc3cc(OCCOC)c(OCCOC)cc23)c1 [erlotinib] + CN(C)S(=O)(=O)c1ccc2c(c1)/C(=C/c1cc3c([nH]1)CCCC3)C(=O)N2 [SU6656] (first compound 0.8 µM, partner dose 0.4 µM)",96.2,76.7,105,111,91.6,93,73.4,108,119,82.9
"OCc1c[nH]c2ccccc12 [Indole-3-carbinol] + CO[C@@H]1[C@H](N(C)C(=O)c2ccccc2)C[C@H]2O[C@]1(C)n1c3ccccc3c3c4c(c5c6ccccc6n2c5c31)C(=O)NC4 [Midostaurin] (first compound 0.8 µM, partner dose 0.08 µM)",85.9,76.5,81.9,81.9,94.8,85.6,84.9,96.8,68.8,97.5
"C#Cc1cccc(Nc2ncnc3cc(OCCOC)c(OCCOC)cc23)c1 [erlotinib] + CC(C)(C)c1cnc(CSc2cnc(NC(=O)C3CCNCC3)s2)o1 [SNS-032] (first compound 0.8 µM, partner dose 0.01 µM)",104,95.9,92.8,92.4,108,105,91.6,117,104,97.7
"Cn1c(Nc2ccc(C(F)(F)F)cc2)nc2cc(Oc3ccnc(-c4ncc(C(F)(F)F)[nH]4)c3)ccc21 + C[C@@H]1CCN(C(=O)CC#N)C[C@@H]1N(C)c1ncnc2[nH]ccc12 [CP690550] (first compound 0.08 µM, partner dose 1 µM)",84.3,73.6,62.6,66.8,63.3,91.7,60.5,75.7,39.8,57.2
"O=C(CCCCCCC(=O)Nc1ccccc1)NO [vorinostat] + C[C@@H]1CCN(C(=O)CC#N)C[C@@H]1N(C)c1ncnc2[nH]ccc12 [CP690550] (first compound 0.08 µM, partner dose 1 µM)",99.2,91,81.9,102,92.8,105,127,101,94.9,99
"Clc1ccc(Nc2nnc(Cc3ccncc3)c3ccccc23)cc1 [vatalanib] + O=C(O)C(=O)Nc1sc2c(c1C(=O)O)CCNC2 [TCS401] (first compound 2 µM, partner dose 1.66667 µM)",100,96,101,112,95,87.4,102,77.1,92.5,101
"OCc1c[nH]c2ccccc12 [Indole-3-carbinol] + O=C(O)C(=O)Nc1sc2c(c1C(=O)O)CCNC2 [TCS401] (first compound 0.8 µM, partner dose 1.66667 µM)",99.2,95.8,112,84.3,125,95.2,85.4,86,95.9,86.1
"COCC[n+]1c2c(n(Cc3cnccn3)c1C)C(=O)c1ccccc1C2=O + CC1(C)NC(=O)N(c2ccc([N+](=O)[O-])c(C(F)(F)F)c2)C1=O [nilutamide] (first compound 0.0004 µM, partner dose 1 µM)",45.8,93.7,72.5,119,88.4,74.3,85.3,50.2,89.1,95.9
"C#Cc1cccc(Nc2ncnc3cc(OCCOC)c(OCCOC)cc23)c1 [erlotinib] + O=C(Nc1cccc(Cl)c1)Nc1ncc(CCNc2ncnc3ccsc23)s1 [SNS314] (first compound 0.8 µM, partner dose 0.0008 µM)",103,80.9,95.1,90.9,111,109,103,94.9,78.6,80.2
"Cn1c(Nc2ccc(C(F)(F)F)cc2)nc2cc(Oc3ccnc(-c4ncc(C(F)(F)F)[nH]4)c3)ccc21 + O=C(Nc1cccc(Cl)c1)Nc1ncc(CCNc2ncnc3ccsc23)s1 [SNS314] (first compound 0.08 µM, partner dose 0.0008 µM)",68.5,73.2,58.6,54.1,66.3,68,42.4,69.3,58.9,51.9
"OCc1c[nH]c2ccccc12 [Indole-3-carbinol] + Cc1cc(N2CCOCC2)cc2[nH]c(-c3c(NC[C@@H](O)c4cccc(Cl)c4)cc[nH]c3=O)nc12 [BMS536924] (first compound 0.8 µM, partner dose 0.2 µM)",108,86.5,104,92.1,84.6,90.7,56.8,97.4,62.2,85.1
"OCc1c[nH]c2ccccc12 [Indole-3-carbinol] + Cc1ccc(NC(=O)c2cccc(N(C)C)c2)cc1NC(=O)c1ccc(O)cc1 [ZM336372] (first compound 0.8 µM, partner dose 2 µM)",84.9,97.1,81.9,116,112,101,96.3,102,80.7,91.8
"Cn1c(Nc2ccc(C(F)(F)F)cc2)nc2cc(Oc3ccnc(-c4ncc(C(F)(F)F)[nH]4)c3)ccc21 + Cn1cncc1[C@@](N)(c1ccc(Cl)cc1)c1ccc2c(c1)c(-c1cccc(Cl)c1)cc(=O)n2C [tipifarnib] (first compound 0.08 µM, partner dose 0.01 µM)",78.9,58.8,56.9,58.5,65,56,56.8,77.8,35,44.9
